The target of the experiment is T1, UFC1 (WT) (human, UniProt Q9Y3C8 1-167).
T1 construct: UFC1, the E2 of UFM1; active site C116; 15N-labelled (M9 medium with 15NH4Cl) for the NMR titrations; In the two crystal structures UFC1 stood as part of a fusion chain; also called E2
T1 sequence: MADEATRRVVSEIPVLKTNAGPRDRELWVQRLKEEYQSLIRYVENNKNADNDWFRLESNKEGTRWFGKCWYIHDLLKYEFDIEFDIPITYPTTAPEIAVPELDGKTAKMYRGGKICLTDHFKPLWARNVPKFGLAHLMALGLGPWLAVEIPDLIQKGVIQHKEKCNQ
As to the kind of experiment: ITC; UFC1 titrated into the UBA5 construct (heat per mole of UFC1); MicroCal PEAQ ITC, 25 °C; 20 mM Tris pH 7.5, 50 mM NaCl, 2 mM DTT; 19 injections of 2 μl; fitted to the two sets of sites model. The note with it: both partners purified. (In general: ITC needs no label: the signal is the heat of the interaction.)

B1: UBA5 […] (domain or fragment)
chain: not shown
notes: UBA5, human, […] (UIS, linker and UBS; no adenylation domain); also called UBA5 lacking the adenylation domain
Regarding B1, the binding result is “binds”.

These data come from article PMC8481289, “Structural basis for UFM1 transfer from UBA5 to UFC1” (Nature Communications, 2021).
